{"source": "the supplement of paper PMC8728848", "binders": {"B1": {"name": "Pbx2 (Cryptococcus neoformans) (protein)", "chain": "AVSPLPSSTELVFYSQKRRRRRICSTATGSLSTPDPTRMTSDPYKRVGMRFSSVPRLLITFLSLLLLVSAAPPCVRFADYDSINQMFIDGGPGTKVLLCPNRLYRLSGPIIFTAADQEIATYGYPTGSERAVLRVEGRNTATAIQGDCRRCARVSVKNLVVDGNRKKLGRMRDFQLATGLVVLGGNEGQSIQNSWIKNPRGFTAIHIREGDKLQCSGARVEKNEIGPVGEEYDPEKDGDDPEMSPLGRPLADGVSIACRDSFIRDNTFRDNTDAAIVVYCSPGTLIHANHIFAQSLSAMAGILMVDSTPFNGDYTGTVVRSNIIDAVSRTIRVGIGIGPTVWSDDTETILTGGSVIGNGLKGRYMGYGIAAAGLKQWTIKDNWDEAKHEGRKSARCFDEPVNPDPIGLLYNRPTMEDCTVQSGFADHDFQYLVCIDGLYDKTNPPKHDPAPLAHDPSPTNAQEDNTVQQDGGDSKSKSIEQPREASDIEAEPSVEKMFSTGSEMMDDVLEHSHQRMHEVIDHLSRRIDILGAASAGKGSGDSKISEVLDPAMSSHLEKLQRKIEHLEFSLRSQIETAIQLRSAIQGWDQEMALVTDWEYDILLDVRHKLELSSYPHDQPLDPRLMRGQSYLNNEAVLVDDHSHPSLEGENLRAMSDRARLNANEEA"}}, "assay_in_all_cases": "glycan array binding signal (z-score within array); higher = stronger binding", "settings_in_all_cases": "glycan notation: IUPAC condensed, linker removed", "key": {"[1]": {"target": "Neu5Ac(a2-3)Gal(b1-3)[Fuc(a1-4)]GlcNAc(b1-3)Gal(b1-3)[Fuc(a1-4)]GlcNAc", "outline": "(§1)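 Glycan array data were curated from 3228 arrays in the Consortium for Functional Glycomics database and kept only where the protein sequence was available. Glycan names were converted to IUPAC-condensed notation, and columns mapping to the same glycan were averaged. The binding signal is a within-array Z-score, averaged across arrays of the same protein sequence at different concentrations or buffers and across linkers. Negative Z-scores can be read as non-binding.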"}, "[2]": {"target": "Neu5Ac(a2-3)Gal(b1-3)[Fuc(a1-4)]GlcNAc(b1-3)Gal(b1-4)[Fuc(a1-3)]GlcNAc", "outline": "as §1"}, "[3]": {"target": "Neu5Ac(a2-3)Gal(b1-3)[GlcNAc(b1-6)]GalNAc", "outline": "as §1"}, "[4]": {"target": "Neu5Ac(a2-3)Gal(b1-3)[Neu5Ac(a2-6)]GalNAc", "outline": "as §1"}, "[5]": {"target": "Neu5Ac(a2-3)Gal(b1-3)[Neu5Ac(a2-6)]GlcNAc(b1-3)[Fuc(a1-3)[Gal(b1-4)]GlcNAc(b1-6)]Gal(b1-4)Glc", "outline": "as §1"}, "[6]": {"target": "Neu5Ac(a2-3)Gal(b1-3)]Neu5Ac(a2-3)Gal(b1-4)]GlcNAc", "outline": "as §1"}, "[7]": {"target": "Neu5Ac(a2-3)Gal(b1-4)Glc", "outline": "as §1"}, "[8]": {"target": "Neu5Ac(a2-3)Gal(b1-4)GlcNAc", "outline": "as §1"}, "[9]": {"target": "Neu5Ac(a2-3)Gal(b1-4)GlcNAc(b1-2)Man", "outline": "as §1"}, "[10]": {"target": "Neu5Ac(a2-3)Gal(b1-4)GlcNAc(b1-2)Man(a1-3)[GlcNAc(b1-4)][Neu5Ac(a2-3)Gal(b1-4)GlcNAc(b1-2)Man(a1-6)]Man(b1-4)GlcNAc(b1-4)GlcNAc", "outline": "as §1"}, "[11]": {"target": "Neu5Ac(a2-3)Gal(b1-4)GlcNAc(b1-2)Man(a1-3)[Neu5Ac(a2-3)Gal(b1-4)GlcNAc(b1-2)Man(a1-6)]Man(b1-4)GlcNAc(b1-4)GlcNAc", "outline": "as §1"}, "[12]": {"target": "Neu5Ac(a2-3)Gal(b1-4)GlcNAc(b1-2)Man(a1-3)[Neu5Ac(a2-3)Gal(b1-4)GlcNAc(b1-2)Man(a1-6)]Man(b1-4)GlcNAc(b1-4)[Fuc(a1-6)]GlcNAc", "outline": "as §1"}, "[13]": {"target": "Neu5Ac(a2-3)Gal(b1-4)GlcNAc(b1-2)Man(a1-3)[Neu5Ac(a2-6)Gal(b1-4)GlcNAc(b1-2)Man(a1-6)]Man(b1-4)GlcNAc(b1-4)GlcNAc", "outline": "as §1"}, "[14]": {"target": "Neu5Ac(a2-3)Gal(b1-4)GlcNAc(b1-2)[Neu5Ac(a2-3)Gal(b1-4)GlcNAc(b1-4)]Man(a1-3)[GlcNAc(b1-4)][Neu5Ac(a2-3)Gal(b1-4)GlcNAc(b1-2)[Neu5Ac(a2-3)Gal(b1-4)GlcNAc(b1-6)]Man(a1-6)]Man(b1-4)GlcNAc(b1-4)GlcNAc", "outline": "as §1"}, "[15]": {"target": "Neu5Ac(a2-3)Gal(b1-4)GlcNAc(b1-2)[Neu5Ac(a2-3)Gal(b1-4)GlcNAc(b1-4)]Man(a1-3)[GlcNAc(b1-4)][Neu5Ac(a2-3)Gal(b1-4)GlcNAc(b1-4)Man(a1-6)]Man(b1-4)GlcNAc(b1-4)GlcNAc", "outline": "as §1"}, "[16]": {"target": "Neu5Ac(a2-3)Gal(b1-4)GlcNAc(b1-2)[Neu5Ac(a2-3)Gal(b1-4)GlcNAc(b1-6)]Man(a1-6)[Neu5Ac(a2-3)Gal(b1-4)GlcNAc(b1-2)Man(a1-3)]Man(b1-4)GlcNAc(b1-4)GlcNAc", "outline": "as §1"}, "[17]": {"target": "Neu5Ac(a2-3)Gal(b1-4)GlcNAc(b1-2)[Neu5Ac(a2-3)Gal(b1-4)GlcNAc(b1-6)]Man(a1-6)[Neu5Ac(a2-3)Gal(b1-4)GlcNAc(b1-2)Man(a1-3)][GlcNAc(b1-4)]Man(b1-4)GlcNAc(b1-4)GlcNAc", "outline": "as §1"}, "[18]": {"target": "Neu5Ac(a2-3)Gal(b1-4)GlcNAc(b1-3)Gal", "outline": "as §1"}, "[19]": {"target": "Neu5Ac(a2-3)Gal(b1-4)GlcNAc(b1-3)Gal(b1-3)GlcNAc", "outline": "as §1"}, "[20]": {"target": "Neu5Ac(a2-3)Gal(b1-4)GlcNAc(b1-3)Gal(b1-4)GlcNAc", "outline": "as §1"}, "[21]": {"target": "Neu5Ac(a2-3)Gal(b1-4)GlcNAc(b1-3)Gal(b1-4)GlcNAc(b1-2)Man(a1-3)[Neu5Ac(a2-3)Gal(b1-4)GlcNAc(b1-3)Gal(b1-4)GlcNAc(b1-2)Man(a1-6)]Man(b1-4)GlcNAc(b1-4)GlcNAc", "outline": "as §1"}, "[22]": {"target": "Neu5Ac(a2-3)Gal(b1-4)GlcNAc(b1-3)Gal(b1-4)GlcNAc(b1-3)Gal(b1-4)GlcNAc", "outline": "as §1"}, "[23]": {"target": "Neu5Ac(a2-3)Gal(b1-4)GlcNAc(b1-3)Gal(b1-4)GlcNAc(b1-3)Gal(b1-4)GlcNAc(b1-2)Man(a1-3)[Neu5Ac(a2-3)Gal(b1-4)GlcNAc(b1-3)Gal(b1-4)GlcNAc(b1-3)Gal(b1-4)GlcNAc(b1-2)Man(a1-6)]GalNAc", "outline": "as §1"}, "[24]": {"target": "Neu5Ac(a2-3)Gal(b1-4)GlcNAc(b1-3)Gal(b1-4)GlcNAc(b1-3)GalNAc", "outline": "as §1"}, "[25]": {"target": "Neu5Ac(a2-3)Gal(b1-4)GlcNAc(b1-3)Gal(b1-4)GlcNAc(b1-3)[Neu5Ac(a2-3)Gal(b1-4)GlcNAc(b1-3)Gal(b1-4)GlcNAc(b1-6)]GalNAc", "outline": "as §1"}, "[26]": {"target": "Neu5Ac(a2-3)Gal(b1-4)GlcNAc(b1-3)Gal(b1-4)GlcNAc(b1-6)[Gal(b1-3)]GalNAc", "outline": "as §1"}, "[27]": {"target": "Neu5Ac(a2-3)Gal(b1-4)GlcNAc(b1-3)Gal(b1-4)[Fuc(a1-3)]GlcNAc", "outline": "as §1"}, "[28]": {"target": "Neu5Ac(a2-3)Gal(b1-4)GlcNAc(b1-3)GalNAc", "outline": "as §1"}, "[29]": {"target": "Neu5Ac(a2-3)Gal(b1-4)GlcNAc(b1-3)[Neu5Ac(a2-3)Gal(b1-4)GlcNAc(b1-6)]GalNAc", "outline": "as §1"}, "[30]": {"target": "Neu5Ac(a2-3)Gal(b1-4)GlcNAc(b1-6)GalNAc", "outline": "as §1"}}, "note": "The other results are listed elsewhere or left out."}
{"binder": "B1", "values": [{"measurement": "glycan array binding signal (z-score)", "setting": "[1]", "value": -0.331}, {"measurement": "glycan array binding signal (z-score)", "setting": "[2]", "value": -0.403}, {"measurement": "glycan array binding signal (z-score)", "setting": "[3]", "value": -0.075}, {"measurement": "glycan array binding signal (z-score)", "setting": "[4]", "value": -0.113}, {"measurement": "glycan array binding signal (z-score)", "setting": "[5]", "value": -0.609}, {"measurement": "glycan array binding signal (z-score)", "setting": "[6]", "value": -0.589}, {"measurement": "glycan array binding signal (z-score)", "setting": "[7]", "value": -0.585}, {"measurement": "glycan array binding signal (z-score)", "setting": "[8]", "value": -0.694}, {"measurement": "glycan array binding signal (z-score)", "setting": "[9]", "value": 4.34}, {"measurement": "glycan array binding signal (z-score)", "setting": "[10]", "value": 0.56}, {"measurement": "glycan array binding signal (z-score)", "setting": "[11]", "value": -0.607}, {"measurement": "glycan array binding signal (z-score)", "setting": "[12]", "value": -0.396}, {"measurement": "glycan array binding signal (z-score)", "setting": "[13]", "value": 0.264}, {"measurement": "glycan array binding signal (z-score)", "setting": "[14]", "value": -0.213}, {"measurement": "glycan array binding signal (z-score)", "setting": "[15]", "value": -0.025}, {"measurement": "glycan array binding signal (z-score)", "setting": "[16]", "value": 0.027}, {"measurement": "glycan array binding signal (z-score)", "setting": "[17]", "value": 0.444}, {"measurement": "glycan array binding signal (z-score)", "setting": "[18]", "value": -0.058}, {"measurement": "glycan array binding signal (z-score)", "setting": "[19]", "value": 0.027}, {"measurement": "glycan array binding signal (z-score)", "setting": "[20]", "value": -0.522}, {"measurement": "glycan array binding signal (z-score)", "setting": "[21]", "value": 1.29}, {"measurement": "glycan array binding signal (z-score)", "setting": "[22]", "value": -0.461}, {"measurement": "glycan array binding signal (z-score)", "setting": "[23]", "value": 0.926}, {"measurement": "glycan array binding signal (z-score)", "setting": "[24]", "value": -0.28}, {"measurement": "glycan array binding signal (z-score)", "setting": "[25]", "value": -0.471}, {"measurement": "glycan array binding signal (z-score)", "setting": "[26]", "value": -0.121}, {"measurement": "glycan array binding signal (z-score)", "setting": "[27]", "value": -0.444}, {"measurement": "glycan array binding signal (z-score)", "setting": "[28]", "value": 0.743}, {"measurement": "glycan array binding signal (z-score)", "setting": "[29]", "value": -0.557}, {"measurement": "glycan array binding signal (z-score)", "setting": "[30]", "value": 0.057}]}
